{"source": "PubChem BioAssay AID1347073", "about": "(National Center for Advancing Translational Sciences (NCATS), 2019)", "note": "Screen size: about 45,000 compounds; about 200 (0.44%) were called active. Roughly 7% stayed inconclusive and do not appear here. The call rests on the fitted dose curve; in most records, active means well fitted activation curve with a large enough effect; inconclusive means small, poorly fitted or top-dose-only effect; inactive means no such curve, though single readings can be large or run the other way. The list shows a part of the results.", "data": [{"experiment": "qHTS of TDP-43 Inhibitors: NCGC Sytravon Library Screen; further: 0% is about no effect; nearly all actives have a fitted effect of over 55% in size", "settings": "yeast TDP-43 toxicity rescue, BacTiter-Glo growth, 24 h; series mostly up to 46.1 µM; growth rescue (activation): at the top concentration", "outline": "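TDP-43-expressing yeast, pregrown in raffinose, seeded at OD600 0.02 in galactose medium with compound for 24 hr at 30 deg C. Growth read by BacTiter-Glo luminescence, so rescue of toxicity appears as activation.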", "values": [{"smiles": "CCc1cccc(C)c1NC(=O)CN1C(=O)NC(CCc2ccccc2)C1=O", "note": "(centres undefined)", "growth rescue (activation)": "inactive: 4.76%"}, {"smiles": "N=c1oc2c3c4c(cc2cc1C(=O)Nc1ccccc1)CCCN4CCC3", "growth rescue (activation)": "inactive: 24%"}, {"smiles": "Cn1c(N)c(C(=O)COC(=O)Cc2ccccc2F)c(=O)n(C)c1=O", "growth rescue (activation)": "inactive: -1.53%"}, {"smiles": "Cc1cc[n+](-c2nc3ccccc3nc2[N-]S(=O)(=O)c2cccs2)cc1C", "growth rescue (activation)": "inactive: 5.07%"}, {"smiles": "CCN(CC)S(=O)(=O)c1ccc(N2CCCCC2)c(NC(=O)/C=C/c2cc(OC)c(OC)c(OC)c2)c1", "growth rescue (activation)": "inactive: 13.6%"}, {"smiles": "COC(=O)c1ccccc1NC(=S)NC(NC(=O)COc1ccccc1)C(Cl)(Cl)Cl", "note": "(centres undefined)", "growth rescue (activation)": "inactive: 10.7%"}, {"smiles": "CS(=O)(=O)N1CCCC(C(=O)Nc2cccc(F)c2)C1", "note": "(centres undefined)", "growth rescue (activation)": "inactive: -5.14%"}, {"smiles": "COc1ccc(C2=NO[C@@H]3[C@@H]4C[C@@H]([C@H]5C(=O)N(c6ccc7c(c6)OCO7)C(=O)[C@@H]45)[C@H]23)cc1OC", "growth rescue (activation)": "inactive: 11.9%"}, {"smiles": "COc1ccccc1CN(C)C(=O)c1cc(C)nc2ccccc12", "growth rescue (activation)": "inactive: -12.7%"}, {"smiles": "COc1ccc(C(=O)N/C(=C\\c2ccc3c(c2)OCO3)C(=O)NCCc2nc3ccccc3[nH]2)cc1", "growth rescue (activation)": "inactive: 1.95%"}, {"smiles": "O=C(O)c1ccccc1C(=O)c1ccc(N2CCOCC2)c([N+](=O)[O-])c1", "growth rescue (activation)": "inactive: -1.14%"}, {"smiles": "N#Cc1ccc(-c2cccs2)nc1SCc1cccnc1", "growth rescue (activation)": "inactive: 15.9%"}, {"smiles": "CC(=O)NCCC1CCCCN1Cc1nc(Cc2cccc(C(F)(F)F)c2)no1", "note": "(centres undefined)", "growth rescue (activation)": "inactive: 7.74%"}, {"smiles": "NS(=O)(=O)c1ccc(CCNC(=O)C(=O)C2C(=O)Nc3ccccc32)cc1", "note": "(centres undefined)", "growth rescue (activation)": "inactive: 16.9%"}, {"smiles": "O=C(COC(=O)c1cc(Cl)ccc1Cl)NC1CCCC1", "growth rescue (activation)": "inactive: -9.47%"}, {"smiles": "CN1OCC(S(=O)(=O)c2ccccc2)C1c1ccccc1", "note": "(centres undefined)", "growth rescue (activation)": "inactive: -10.4%"}, {"smiles": "CC(NC(=O)COc1ccc(-c2nnco2)cc1)c1ccc(Cl)cc1Cl", "note": "(centres undefined)", "growth rescue (activation)": "inactive: 21.7%"}, {"smiles": "COc1ccccc1C(=O)C1CCCN(Cc2cn[nH]c2C2CCCCC2)C1", "note": "(centres undefined)", "growth rescue (activation)": "inactive: -4.97%"}, {"smiles": "Cn1c(NCc2ccccc2F)nc2cc(-c3ccsc3)sc2c1=O", "growth rescue (activation)": "inactive: 8.05%"}, {"smiles": "COC(=O)c1c(C)[nH]c(C(=O)OCC(=O)N2c3ccccc3NC(=O)C2(C)C)c1C", "growth rescue (activation)": "inactive: 15.5%"}, {"smiles": "COc1ccc(C2(C(=O)N3CCOCC3)CCCC2)cc1", "growth rescue (activation)": "inactive: 7.93%"}, {"smiles": "COc1ccc(NS(=O)(=O)c2csc(C(N)=O)c2)cc1", "growth rescue (activation)": "inactive: 11.5%"}, {"smiles": "COc1ccc(C(=O)CCC(=O)Nc2cccnc2)c(OC)c1", "growth rescue (activation)": "inactive: -5.25%"}, {"smiles": "O=C(NCC1CCCO1)c1ccccn1", "note": "(centres undefined)", "growth rescue (activation)": "inactive: -1.53%"}, {"smiles": "O=C(COc1ccc(Br)cc1Cl)NCCCN1CCOCC1", "growth rescue (activation)": "inactive: 8.06%"}, {"smiles": "COc1ccc(CC(=O)NNS(=O)(=O)c2ccccc2[N+](=O)[O-])cc1", "growth rescue (activation)": "inactive: -4.07%"}, {"smiles": "CSc1cccc(NS(=O)(=O)c2ccc(C(C)=O)cc2)c1", "growth rescue (activation)": "inactive: 12.7%"}, {"smiles": "O=C(Nc1ccc(C(=O)O)cc1)/C(=C\\c1ccco1)NC(=O)c1ccccc1Cl", "growth rescue (activation)": "inactive: -0.212%"}, {"smiles": "CC(NC(=O)c1ccccc1F)c1nnc(SCc2nc3ccccc3c(=O)[nH]2)n1C", "note": "(centres undefined)", "growth rescue (activation)": "inactive: 7.53%"}]}]}
